Among all 190,000 compounds or so, about 520 (0.27%) were called active. Inconclusive results, whose numbers are uncertain, are shown with a selection of clear calls.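 Rule for the calls: active = GTP binding activity at least 20 points away from the 100% control level, either lower or higher; inconclusive = compound flagged as likely green fluorescent, judged across all proteins; inactive = the rest.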
molecular target: Ras-related C3 botulinum toxin substrate 1 (Homo sapiens) (UniProt P63000); assay: wildtype Rac1 GTP binding modulators, primary screen, biochemical, GST-Rac1 beads, flow cytometry, multiplex (AID 757); conditions: fluorescent GTP binding, at 10 µM, actives lie on both sides, 0 = cold GTP competed, 100 = untreated

| Compound | GTP binding activity (% of control) |
| --- | --- |
| O=C(NNC(=S)NCc1ccc(Cl)cc1)c1ccc(Br)o1 | inactive: 90% |
| Cc1cc(C)c(S(C)(=O)=O)c(Oc2ccc(C(C)(C)C)cc2)n1 | inactive: 106% |
| Cc1occc1C(=O)NCc1ccccn1 | inconclusive: 105% |
| CCCc1cc(=O)oc2cc(C)cc(OC(=O)c3ccco3)c12 | inconclusive: 104% |
| Cc1nn(Cc2ccccc2Cl)c(Cl)c1C(=O)NCCc1ccccc1 | inconclusive: 100% |
| COC(=O)NCc1ccc(CNC(=O)OC)cc1 | inconclusive: 106% |
| CC(=O)OC(C(=O)NC1CCCCC1)c1ccc(Cl)c(Cl)c1 (stereo unspecified) | active: 29% |
| CN1C(=O)NC(c2ccc(O)cc2)C2=C1CN(c1cccc3ccccc13)C2=O (stereo unspecified) | inconclusive: 98% |
| CC1CCN(c2ncccc2C(=O)O)CC1 | active: 156% [activator] |
| Cc1ccc(Nc2nc(N)c(C#N)c(CC#N)c2C#N)cc1 | inconclusive: 64% |
| CC(Nc1cc(N2CCN(S(=O)(=O)N(C)C)CC2)ccc1[N+](=O)[O-])c1ccccc1 (stereo unspecified) | inconclusive: 103% |
| O=C(NC(NC(=S)Nc1ccccc1C(=O)O)C(Cl)(Cl)Cl)c1ccco1 (stereo unspecified) | inconclusive: 87% |
| CCOCCOC(NC(=O)c1ccccc1)(C(F)(F)F)C(F)(F)F | inactive: 104% |
| CCN1/C(=C\C=C2\C(=O)N(c3ccccc3)C(=S)N2C)Sc2ccccc21 | inactive: 83% |
| C=CCNC(=O)COC(=O)c1ccc(C)c(NC(=O)c2ccco2)c1 | inconclusive: 97% |
| CCOc1nnc(C)c2c(C)n(-c3cccc(Cl)c3)nc12 | inconclusive: 137% |
| OC(CN1CCN(Cc2ccc3c(c2)OCO3)CC1)c1c[nH]c2ccccc12 (stereo unspecified) | active: 122% [activator] |
| CCN(CC)CCCN(Cc1cc2cc(OC)c(OC)cc2[nH]c1=O)C(=O)Nc1ccccc1 | inconclusive: 103% |
| O=C(COC(=O)c1ccc2c(c1[N+](=O)[O-])C(=O)c1ccccc1C2=O)NC1CC1 | active: 70% |
| Cc1cc2cc(C)c(NCCNC(=O)c3ccccc3Cl)nc2cc1C | inconclusive: 95% |
| COC(=O)Cc1c(O)ccn(Cc2ccc(OC)c(OC)c2)c1=O | inactive: 101% |
| COc1ccc(/C=C/C(=O)NC(=S)Nc2cc3oc4ccccc4c3cc2OC)cc1 | inconclusive: 105% |
| COc1ccc(C2CC(c3ccccc3)=NN2C(=O)COC(=O)c2nc3nccc(C)n3n2)cc1 (stereo unspecified) | inactive: 101% |

| Compound | GTP binding activity (% of control) |
| --- | --- |
| Oc1c(C(Nc2nccs2)c2ccc(C(F)(F)F)cc2)ccc2cccnc12 (stereo unspecified) | inactive: 100% |
| COC(=O)c1c(NC(=O)C2CC2)sc(C(=O)Nc2ccccc2)c1C | inconclusive: 96% |
| CC(Sc1nnc2ccccn12)C(=O)N1CCc2ccccc2C1 (stereo unspecified) | inconclusive: 103% |
| O=C1CC(c2ccccc2)CC(O)=C1C=NCc1ccco1 (stereo unspecified) | inconclusive: 104% |
| COc1ccccc1N1CCN(S(=O)(=O)c2cccc(F)c2)CC1 | inconclusive: 234% |
| Cc1ccc(NS(=O)(=O)c2ccc(C3CCCCC3)cc2)cc1 | inconclusive: 109% |
| Cc1ccc(/C([O-])=C(/C(=S)NCc2ccccc2)[n+]2ccccc2)cc1[N+](=O)[O-] | inactive: 100% |
| COc1ccc(C2(c3ccc(O)cc3O)CC(c3ccccc3Cl)NC(=S)N2)cc1 (stereo unspecified) | inactive: 96% |
| CCO/N=C1\C(=O)N(c2ccccc2)c2ccccc21 | inactive: 101% |
| Cc1no[n+]([O-])c1COc1cccc(/C=C2\N=C(c3ccccc3)OC2=O)c1 | inconclusive: 132% |
| Cc1oc2c(O)c(O)ccc2c(=O)c1-c1cnn(-c2ccccc2)c1 | inactive: 97% |
| CCOc1ccc(-n2c(SCC(=O)NC(C)CC)nc3n[nH]c(C)c3c2=N)cc1 (stereo unspecified) | inconclusive: 79% |
| Cc1cccc(C)c1NC(=O)CN(C)C(C)C(=O)Nc1ccccc1-c1ccccc1 (stereo unspecified) | inconclusive: 94% |
| O=S(=O)(Nc1cccc(-c2cn3c(n2)SCC3)c1)c1cccs1 | inconclusive: 95% |
| CCOc1cc(C2NC(=O)N(C)C(C)=C2[N+](=O)[O-])ccc1OC(C)=O (stereo unspecified) | inconclusive: 97% |
| CSc1ccccc1NC(=O)c1cc2ncc(Br)cn2n1 | inactive: 97% |
| CCOc1cc(/C=C(\C#N)C(N)=O)ccc1OS(=O)(=O)c1ccccc1 | inconclusive: 104% |
| Cn1c(=O)n(Cc2ccco2)c(=N)c2c3c(sc21)CCCC3 | inconclusive: 95% |
| CCCCc1cc(=O)oc2c(CN(C)C)c(O)c(Cl)cc12 | inconclusive: 108% |
| O=C(CN1CCN(c2ccccc2O)CC1)NC(=O)NCc1ccco1 | inconclusive: 102% |
| COc1ccc(C(=O)Nc2cccc(C(C)=O)c2)cc1OC | inconclusive: 110% |
| Cc1ccc2c(c1)c1nnc(SCC(=O)Nc3cccc(Cl)c3C)nc1n2CC(=O)O | active: 74% |
| Cc1ccnc(NS(=O)(=O)c2ccc(CC(C)C)cc2)c1 | inconclusive: 105% |

| Compound | GTP binding activity (% of control) |
| --- | --- |
| CCOC(=O)N1CCC(NC(=O)CCc2c(C)nc3nc(C)nn3c2C)CC1 | inconclusive: 104% |
| Cc1ccc2nsnc2c1NC(=O)c1ccccc1[N+](=O)[O-] | inconclusive: 107% |
| O=S(=O)(NCCOCC(F)(F)C(F)F)c1ccc2oc3ccccc3c2c1 | inactive: 97% |
| CC(=O)Nc1ccc(S(=O)(=O)Oc2ccc(/C=N/NC(=O)c3ccc(Cl)cc3)cc2)cc1 | inactive: 97% |
| Cc1cccc(C)c1OC(=O)C(c1ccccc1)c1ccccc1 | inactive: 104% |
| CCOC(=O)c1cnc2c(Cl)cccc2c1NCCN(C)C | inconclusive: 104% |
| Cc1ccc(C2NC(=O)NC3=C2CCc2ccccc23)cc1 (stereo unspecified) | inconclusive: 90% |
| COCCSc1nnc(NC(=O)CSCc2ccccc2)s1 | inconclusive: 101% |
| CC(=O)C(Cc1cccc(F)c1)(Cc1cccc(F)c1)C(C)=O | inconclusive: 94% |
| CCOC(=O)C1CCN(C(=O)CCNC(=O)Cn2ccc3ccccc3c2=O)CC1 | inconclusive: 106% |
| CCc1nc(N2CCCCC2C)c2oc3ccccc3c2n1 (stereo unspecified) | inconclusive: 88% |
| CCOc1ccc(N2C(=O)c3ccc(C(=O)OCC(=O)N(CC)C4CCS(=O)(=O)C4)cc3C2=O)cc1 (stereo unspecified) | inconclusive: 98% |
| COc1ccc(C2=NN(CN3C(=O)C(=O)c4ccccc43)C(c3ccc(OC)cc3)C2)cc1 (stereo unspecified) | inactive: 102% |
| COc1ccc(N2C(=O)CC(Cc3ccccc3)C2=O)cc1 (stereo unspecified) | inconclusive: 105% |
| O=C(COCC(=O)NCc1ccccc1)NCc1ccccc1 | inconclusive: 96% |
| O=C(c1nn2c(C(F)(F)F)cc(-c3ccc(F)cc3)nc2c1Cl)N1CCOCC1 | inconclusive: 174% |
| Cc1cc(-c2nnc3n2N=C(c2ccc(-c4ccccc4)cc2)CS3)n[nH]1 | active: 75% |
| CC(C)C(=O)Nc1ccc(C(=O)NNC(=O)C(c2ccccc2)c2ccccc2)cc1 | inconclusive: 97% |
| CC1S/C(=N/N=C/c2cccs2)NC1=O (stereo unspecified) | inconclusive: 100% |
| COC(=O)c1cc(NCc2ccccc2F)ccc1N1CCOCC1 | inconclusive: 97% |
| CCOC(=O)c1c2c3c(cccc3[nH]c1=O)C(=O)c1ccccc1-2 | active: 76% |
| Cc1ccc2cc(CN(CC3CCCO3)C(=S)Nc3ccccc3)c(=O)[nH]c2c1 (stereo unspecified) | inconclusive: 102% |
| COC(=O)C1=CN(C2CC2)C=C(C(=O)OC)C1c1ccccc1OC | inconclusive: 92% |

| Compound | GTP binding activity (% of control) |
| --- | --- |
| COc1ccc(C2C(C(C)=O)=C(O)C(=O)N2c2nccs2)c(OC)c1 (stereo unspecified) | inactive: 97% |
| COC(=O)C1=C(C)NC(=O)NC1c1ccc(OC(=O)c2ccco2)cc1 (stereo unspecified) | inactive: 101% |
| COc1ccc(CN2C(=O)/C(=C/c3ccc(-c4ccc(Cl)c(C(=O)O)c4)o3)SC2=S)cc1 | active: 76% |
| CC1(C)Cc2c(sc(NC(=S)NC(=O)c3ccccc3)c2C(=O)O)CO1 | active: 70% |
| C=CCSc1nc(-c2ccc(OC)cc2)c(C#N)c(=O)n1CC=C | inactive: 96% |
| O=C(O)c1csc(-n2nc(-c3ccccc3)cc2C(F)(F)F)n1 | inconclusive: 97% |
| O=S1(=O)CC(O)C(N2CCC(c3ccccc3)CC2)C1 (stereo unspecified) | inconclusive: 103% |
| CCc1nnc(NC(=O)CSc2nnc(Cc3cc(=O)[nH]c(=O)[nH]3)n2-c2ccc(OC)cc2)s1 | inconclusive: 93% |
| COc1ccc(CNC(=S)NC(C)CCc2ccccc2)cc1 (stereo unspecified) | inactive: 98% |
| CC(=O)c1cccc(NC(=O)N2CCCC2C(=O)NCc2ccc(C)cc2)c1 (stereo unspecified) | inconclusive: 104% |
| O=C(N/N=C/c1cccnc1)C(O)c1ccccc1 (stereo unspecified) | inconclusive: 106% |
| COC(=O)c1ccc(CSc2nnc(Nc3ccc(C)cc3)s2)o1 | inconclusive: 88% |
| CC1(C)CC(=O)c2cnc(NCc3ccco3)nc2C1 | inconclusive: 103% |
| O=C(CSc1nnc(-c2cccnc2)n1-c1ccc(SC(F)F)cc1)N1CCCc2ccccc21 | inactive: 104% |
| O=C(Cn1c(=O)n(-c2ccccc2)c(=O)c2sccc21)NCc1ccccc1 | inactive: 99% |
| Nc1cnn(Cc2ccccc2F)c1 | inactive: 107% |
| COc1ccc(/C=C/C(=O)Nc2cccnc2)cc1OC | inactive: 98% |
| COc1ccc(C)cc1NC(=O)C(NC(=O)c1cc(OC)c(OC)c(OC)c1)C(C)C (stereo unspecified) | inconclusive: 91% |
| COc1ccc(-n2c(C)nc3cc(C(=O)NCc4ccc5c(c4)OCO5)ccc32)cc1 | inconclusive: 80% |
| Cc1nc2ncnn2c(C)c1Cc1cccc(C(F)(F)F)c1 | inactive: 99% |
| Cc1ccc(C(=O)COC(=O)c2ccc3c(c2)C(=O)N(c2cccc4ncccc24)C3=O)cc1C | inconclusive: 82% |
| COc1ccccc1-c1ccc(SCc2cccc(F)c2)nn1 | inconclusive: 89% |

— PubChem BioAssay AID757 (NMMLSC, 2007)
